# Measurements: PubChem BioAssay AID1347120 (National Center for Advancing Translational Sciences (NCATS), 2019)
# In all, about 390,000 compounds went through this assay and about 930 (0.24%) were called active. The inconclusive results got no clear call from the source; some entries with a clear call stand among them for comparison. Calls come from the whole dose curve; as a rule, active = well fitted activation curve with a large enough effect; inconclusive = small, poorly fitted or top-dose-only effect; inactive = no such curve, though single readings can be large or run the other way. Potencies beside an inconclusive call are fits to weak or partial responses and may not hold up.
# Experiment: qHTS for Suppressors of FUS Proteinopathy: Primary screen using FUS-linked yeast assay; note: nearly all actives have a fitted effect of over 55% in size;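 for growth rescue (activation): plate controls were DMSO vehicle for no effect and reference control for full effect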
# Details: S. cerevisiae FUS-expressing, OD600, 24 h; Potency: growth rescue; growth rescue (activation): at 76.6 µM (top of the series)
# How it was run: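 S. cerevisiae expressing FUS from galactose induction served as the toxicity model. Growth after 24hr at 30C, read as absorbance at 600 nm, indicates suppression of toxicity; compounds dosed at several concentrations.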
# Potency is the fitted concentration of half-maximal effect; tags give direction and shape of the fitted curve.
Structure (SMILES),growth rescue (activation),Potency
O=C(OC12CCCN(C1)/C(=C/c1ccncc1)C2)c1ccc(Cl)cc1 (stereo not drawn),inactive: 2.2%,
COc1ccc(C)cc1NC(=O)C(=O)NCC(c1cccnc1)N1CCN(c2ccccc2F)CC1 (stereo not drawn),,"inconclusive: 31.6 µM [activator, single point]"
O=C1CC(c2ccccc2)Oc2ccccc21 (stereo not drawn),inactive: -35.6%,
O=C(CNc1cccc(Br)c1)Nc1ccc(S(=O)(=O)N2CCCCC2)cc1,,"inconclusive: 31.6 µM [activator, single point]"
CC(=O)N1CCN(C(=O)CCNS(=O)(=O)c2ccc(Br)cc2)CC1,inactive: -0.955%,
c1ccc(CCNc2ncnc3scc(C4COc5ccccc5O4)c23)cc1 (stereo not drawn),inactive: 40%,
O=C1NC(Nc2nccs2)(C(F)(F)F)C(=O)N1CCc1ccccc1 (stereo not drawn),,"inconclusive: 2.82 µM [activator, full curve]"
Cc1ccc(NC(=O)CNc2ccc(OC(C)C)cc2)c(C)c1,,"inconclusive: 35.5 µM [activator, partial curve, poor fit]"
Cc1ccc(S(=O)(=O)N2C[C@H]3[C@H]4C(=O)N(c5ccccc5)C(=O)[C@H]4C[C@H](OC(=O)NCc4ccccc4F)[C@@]3(O)C2)cc1,,"inconclusive: 28.2 µM [activator, partial curve]"
Cc1nc2c(-c3ccc(F)cc3)c(C)nn2c(C)c1CCC(=O)NC(C)CCc1ccco1 (stereo not drawn),,"inconclusive: 35.5 µM [activator, partial curve]"
CSc1cccc(NC(=O)CN(Cc2ccc(Cl)cc2)S(C)(=O)=O)c1,,"inconclusive: 17.8 µM [activator, partial curve, poor fit]"
COc1ccc(CCC(=O)Nc2nc3ccccc3[nH]2)cc1OC,,"inconclusive: 2.51 µM [activator, full curve]"
C/C(O)=C\c1nc2ccccc2oc1=O,,"inconclusive: 50.1 µM [activator, single point]"
Cc1ccc2[nH]c(=O)c(CN(CCCN(C)C)C(=O)Nc3cccc(Cl)c3)cc2c1,inactive: 19.3%,
Cc1ccc(C2C3CSCC=C3C(C#N)=C(N)C2(C#N)C#N)cc1 (stereo not drawn),,"inconclusive: 1.58 µM [activator, partial curve, poor fit]"
Cc1ccc(C(=O)N2CCn3c4c(c5cc(C)ccc53)CCCC42)cc1 (stereo not drawn),,"inconclusive: 50.1 µM [activator, single point]"
COc1ccc(OC)c(NC(=O)c2csc(Cl)c2OC)c1,,"inconclusive: 17.8 µM [activator, partial curve]"
CC(C)(C)OC(=O)C[C@@H]1C/C=C\C[C@@H](CC(=O)N[C@H](CO)Cc2ccccc2)C(=O)N2CCC[C@H]2COC1=O,inactive: 20.5%,
COc1ccc(CNC(=O)C2CCN(S(=O)(=O)c3ccc4c(c3)NC(=O)C(C)S4)CC2)cc1 (stereo not drawn),,"inconclusive: 56.2 µM [activator, partial curve, poor fit]"
Cc1nc(C(=O)Nc2ccc(Cl)cc2)sc1C1(C)CC(c2cccc([N+](=O)[O-])c2)=NO1 (stereo not drawn),,"inconclusive: 35.5 µM [activator, single point]"
Cc1cnc(C(=O)N2CCc3c([nH]c4ccccc34)C2c2ccc(F)cc2)cn1 (stereo not drawn),,"inconclusive: 20 µM [activator, partial curve, poor fit]"

Structure (SMILES),growth rescue (activation),Potency
COc1cc(-c2ccc3sc(-c4ccsc4)c(C#CCO)c3c2)cc(OC)c1OC,,"inconclusive: 31.6 µM [activator, single point]"
O=C(NCCc1csc(-c2ccc(C(F)(F)F)cc2)n1)c1cccs1,,"inconclusive: 7.08 µM [activator, full curve, poor fit]"
O=C(N/N=C/C=C/c1ccco1)c1ccccc1Cl,,active: 39.8 µM
CC(C)(C)NC(=O)C(c1ccccc1)n1c(=O)c(-c2cc3ccccc3[nH]2)nc2ccccc21 (stereo not drawn),,"inconclusive: 31.6 µM [activator, partial curve]"
CC(=O)Nc1cccc(-c2ccnc3c2CC(C)(C(=O)Nc2ccc(C(C)C)cc2)O3)c1 (stereo not drawn),,"inconclusive: 28.2 µM [activator, single point]"
COc1cc(C2C(C#N)=C(N)Oc3c2ccc2ccccc32)ccc1OCC(=O)Nc1cccc(C)c1 (stereo not drawn),,"inconclusive: 14.1 µM [activator, partial curve, poor fit]"
Cc1ccc2c(Cl)c(C(=O)NCC3CCCO3)sc2c1 (stereo not drawn),,"inconclusive: 4.47 µM [activator, partial curve, poor fit]"
CCN(CC)c1ccc(/C=N/NC(=O)c2cccc(S(=O)(=O)N3CCOCC3)c2)c(O)c1,,"inconclusive: 7.94 µM [activator, partial curve, poor fit]"
COc1ccc(-c2nc(-c3ccccc3)[nH]c(=O)c2C#N)cc1,inconclusive: 89.2% [activator],
CC1CCCN(c2nc3c(c(=O)n(C)c(=O)n3C)n2Cc2ccccc2)C1 (stereo not drawn),inactive: 44.3%,
O=C(CCl)N1CCN(S(=O)(=O)Cc2ccccc2)CC1,inactive: 36.2%,
O=C1COc2ccc(C(=O)CSc3nnc(Cc4cccs4)n3-c3ccccc3)cc2N1,,"inconclusive: 35.5 µM [activator, single point]"
Cc1cc(C)c(NC(=O)CSc2nnc(Cc3cccn3C)n2-c2ccc(F)cc2)c(C)c1,,"inconclusive: 31.6 µM [activator, partial curve]"
Cc1ccc(CNC(=O)c2ccc(N3CCCC3)c(NC(=O)Nc3ccc(F)c(Cl)c3)c2)cc1,,"inconclusive: 20 µM [activator, partial curve, poor fit]"
Cc1ccc2c(c1)-c1c(c(C(=O)N3CCN(c4cc(C)ccc4C)CC3)nn1C)CS2,,"inconclusive: 22.4 µM [activator, partial curve, poor fit]"
Cc1ccc(CNC(=O)C(C)n2nc(C)c3sc4ccccc4c3c2=O)cc1 (stereo not drawn),inactive: -10.6%,
CC(=O)c1c(C)oc2c1cc(NS(=O)(=O)c1ccc(C(C)(C)C)cc1)c1ccccc12,,"inconclusive: 15.8 µM [activator, partial curve, poor fit]"
CN(Cc1ccccc1)C(=O)c1ccccc1C(=O)OCC(=O)N(Cc1ccccc1)C(C)(C)C,,"inconclusive: 28.2 µM [activator, single point]"
Cc1ccc(NC(=O)COc2ccccc2)cc1S(=O)(=O)N1CCCCCC1,inactive: 26.8%,
COc1ccc(-c2cc(NC(=O)c3cncn3-c3ccccc3)ccc2OC)cc1,,"inconclusive: 50.1 µM [activator, single point]"
Cc1ccc(S(=O)(=O)N2CCOCC2)cc1C(=O)OCC(=O)Nc1ccc2c(c1)OCO2,,"inconclusive: 22.4 µM [activator, single point]"

Structure (SMILES),growth rescue (activation),Potency
CC1CCN(C(=O)CSc2nc3ccccc3nc2Cc2ccccc2)CC1,,"inconclusive: 39.8 µM [activator, single point]"
COc1ccccc1CC(=O)Nc1ccc2nc(Nc3cccc(Cl)c3)cc(C)c2c1,,"inconclusive: 22.4 µM [activator, partial curve, poor fit]"
CC(C)C(=O)Nc1ccc2nc(SCC(=O)N3CCc4ccccc43)sc2c1,inactive: 9.24%,
O=C(NCCc1csc(-c2cccnc2)n1)c1c(F)cccc1F,inactive: 18.7%,
COc1cccc(NC(=O)Cn2cc(C(=O)c3ccco3)c3ccccc32)c1,inactive: 1.87%,
Cc1ccc(C)c(NC(=O)C2CCN(c3cc(C)nc4c(-c5ccc(Cl)cc5)c(C)nn34)CC2)c1,inactive: -3.17%,
Cc1ccc(C)c(OCCC(=O)OCC(=O)NCCc2ccc(S(N)(=O)=O)cc2)c1,inactive: 3.5%,
Cc1c(C)n(Cc2ccc(-c3ccccc3C(=O)O)cc2)c2ccc(C(=O)N[C@@H](C)c3ccc([N+](=O)[O-])cc3)cc12,,"inconclusive: 12.6 µM [activator, partial curve]"
O=C(c1ccc2ncsc2c1)N1CCN(c2cccc(C(F)(F)F)c2)CC1,,"inconclusive: 31.6 µM [activator, single point]"
COc1ccc(C(=O)NC2CCCc3c2cnn3-c2cc(F)cc(F)c2)c(OC)n1 (stereo not drawn),inactive: 3.37%,
O=C(c1ccc(Cl)c(Cl)c1)N1CCC(=O)N(C(COCc2ccc(Cl)cc2)Cc2ccccc2)CC1 (stereo not drawn),,"inconclusive: 25.1 µM [activator, single point]"
CC(=O)c1ccc(N2CCN(C(=O)Nc3ccc(C(C)C)cc3)CC2)cc1,,inactive
Cc1ccc(-c2csc(NC(=S)NC(=O)/C=C/c3ccco3)n2)cc1,,"inconclusive: 5.01 µM [activator, partial curve, poor fit]"
COc1ccc(CCNC(=O)c2ccc3c(c2)ncn3-c2ccc(C(C)C)cc2)cc1OC,,"inconclusive: 17.8 µM [activator, partial curve]"
CC(C)c1ccc2occ(CC(=O)N(Cc3ccc(F)cc3)C3CCS(=O)(=O)C3)c2c1 (stereo not drawn),,"inconclusive: 17.8 µM [activator, partial curve, poor fit]"
CC(C)Oc1ccc(Cl)cc1Nc1nc(NCCO)nc(N2CCCC2)n1,,"inconclusive: 50.1 µM [activator, single point]"
C=CCN(c1ccccc1)S(=O)(=O)c1cccc(C(=O)NCc2ccncc2)c1,inactive: -5.93%,
COc1ccc(NC(=O)c2nc[nH]c2C(=O)N[C@H](C)c2ccccc2)cc1,,"inconclusive: 31.6 µM [activator, single point]"
CC1(C(=O)NS(=O)(=O)c2ccc(Cl)cc2)CCN1C(=O)c1ccccc1CCc1ccccc1 (stereo not drawn),,"inconclusive: 28.2 µM [activator, single point]"
O=c1c2ccccc2sn1-c1ccc(Cl)cc1,inactive: -25.9%,
C#CCN(C[C@H]1[C@H](OC(=O)NCc2ccc(OC)c(OC)c2)[C@H](OC(=O)NCc2ccc(OC)c(OC)c2)C[C@H]2C(=O)N(c3ccccc3)C(=O)[C@@H]12)S(=O)(=O)c1ccc(C)cc1,,"inconclusive: 20 µM [activator, partial curve, poor fit]"
